Laboratory results taken from PubChem BioAssay (NCATS).
The shares of active, inactive and inconclusive entries below differ from those in the screen. For part of these data: No potency is given beside an inconclusive call; the fits are too rough. Activity calls are given as the source filed them. Unless noted, the call rests on the fitted dose curve; in most records, active means well fitted curve in the direction sought with a large enough effect; inconclusive means small, poorly fitted or top-dose-only effect, or another doubt; inactive means no such curve, though single readings can be large; an effect the other way counts as inactive or inconclusive.

Experiments:
[1] = qHTS of pediatric cancer cell lines to identify multiple opportunities for drug repurposing: Primary screen for NB1643 cells (AID 1347099); details: NB1643 neuroblastoma viability, CellTiter-Glo luminescence, 48 h; series mostly up to 46 µM; further: nearly all actives have a fitted effect of over 50% in size
Summary of the method: (§1)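 Readout: CellTiter-Glo luminescence, 48 h treatment. Controls DMSO (neutral) and bortezomib 2.3 µM final (positive). Potency and efficacy taken from primary-screen concentration-response curves.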

[2] = NS1 protein of Zika virus - qHTS assay to identify small molecule inhibitors in human HEK 293 cells (AID 1347053); details: HEK293 ZIKV MR766 infection, NS1 TR-FRET, 24 h; series mostly up to 46.1 µM; further: nearly all actives have a fitted effect of over 55% in size
Summary of the method: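 HEK 293; 20 h pre-culture, 37 C/5% CO2; cpd 1 h pre-infection; ZIKV MR766, MOI = 0.5, 24 h, 37 C; TR-FRET NS1 readout (two anti-NS1 Abs); norm. to no-virus vs infected.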

[3] = qHTS of pediatric cancer cell lines to identify multiple opportunities for drug repurposing: Primary screen for Saos-2 cells (AID 1347097); details: Saos-2 viability, CellTiter-Glo ATP luminescence, 48 h; activity change, negative = cytotoxic: at 46 µM (top of the series); further: nearly all actives have a fitted effect of over 40% in size
Summary of the method: as §1

[4] = qHTS of pediatric cancer cell lines to identify multiple opportunities for drug repurposing: Primary screen for RD cells (AID 1347104); details: RD rhabdomyosarcoma viability, CellTiter-Glo luminescence, 48 h; series mostly up to 46 µM; further: nearly all actives have a fitted effect of over 55% in size
Summary of the method: as §1

MKL-2 = experiment: qHTS assay to identify novel small-molecules to repurpose for Merkel cell carcinoma treatment (AID 1296009); details: MCC and control cell lines, CellTiter-Glo viability, 72 h; activity change, negative = cytotoxicity: at 46 µM (top of the series); further: nearly all actives have a fitted effect of over 60% in size
Summary of the method: (§2)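 Cells were treated for 72 hr at 37 degree celsius with compounds in 8- or 11-point dose response. Viability was read by CellTiter-Glo luminescence, normalized to no-cell (cytotoxicity) and DMSO controls.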

WaGa = experiment: as above; details: MCC and control cell lines, CellTiter-Glo viability, 72 h; series mostly up to 46 µM
Summary of the method: as §2

[5] = qHTS Assay for Identifying Gametocytocidal Compounds (AID 743244); details: P. falciparum 3D7 stage III-V gametocytes, alamarBlue, 72 h; max response: hits give low values
Summary of the method: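 Late gametocytes (III–V), P. falciparum 3D7; 72 h drug, then 24 h alamarBlue; resazurin reduction read by fluorescence.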

[6] = qHTS of pediatric cancer cell lines to identify multiple opportunities for drug repurposing: Primary screen for A673 cells (AID 1347092); details: A673 Ewing sarcoma viability, CellTiter-Glo ATP luminescence, 48 h; activity change, negative = cytotoxic: at 46 µM (top of the series); further: nearly all actives have a fitted effect of over 45% in size
Summary of the method: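 A673 cells (500-1,000 cells/well) were treated 48 hours at 37 degrees C with compounds at 11-point (0.78 nM to 46 µM) or 8-point (0.59 nM to 46 µM) dilutions. Viability read by CellTiter-Glo luminescence; concentration-response curves fitted.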

[7] = qHTS of pediatric cancer cell lines to identify multiple opportunities for drug repurposing: Primary screen for MG 63 (6-TG R) cells (AID 1347105); details: MG 63 (6-TG R) viability, CellTiter-Glo, 48 h; activity change, negative = cytotoxic: at 46 µM (top of the series) unless noted; further: nearly all actives have a fitted effect of over 50% in size
Summary of the method: as §1

[8] = qHTS of pediatric cancer cell lines to identify multiple opportunities for drug repurposing: Primary screen for Rh30 cells (AID 1347107); details: Rh30 rhabdomyosarcoma viability, CellTiter-Glo luminescence, 48 h; series mostly up to 46 µM; further: nearly all actives have a fitted effect of over 75% in size
Summary of the method: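 Viability after 48 h compound treatment at 37C, 500-1,000 cells/well, read as ATP luminescence with CellTiter-Glo. Primary screens used 11-point (MIPE, 0.78 nM-46 µM) or 8-point (NPC, 0.59 nM-46 µM) final concentrations; follow-up screens used 11-point dilutions.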

[9] = tested on: Zika virus NS2B-NS3 protease; experiment: Primary screen GU AMC qHTS for Zika virus inhibitors (AID 1347154); details: Zika NS2B-NS3 unlinked protease, AMC fluorogenic substrate; series mostly up to 54.1 µM; further: nearly all actives have a fitted effect of over 70% in size
Summary of the method: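 Unlinked Zika NS2B hydrophilic domain–NS3 protease complex at 25 nM in 10 mM Tris-HCl pH 8.0, 0.01% Tween 20, with an AMC peptide substrate. Fluorescence change (340/450 nm) over 15 min at room temperature, normalized to controls, fitted to 4-parameter Hill.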

[10] = A High-Content qHTS Against Drug Library for the Identification of Small Molecules that Inhibit DYT1 Early Onset Primary Dystonia-Associated Cell Pathology (AID 1645839; calls by dose curve); details: HEK293 Flp-In EGFP-delE TorsinA, punctate imaging, 48 h; series mostly up to 46.1 µM
Summary of the method: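 Flp-In T-REx 293 cells with tetracycline-inducible EGFP-delE hTOR1A (WT EGFP-hTOR1A as reference), 800 cells/well; compound added with tetracycline, 48 h at 37 C. Fixed, permeabilized cells imaged; %pathology (punctate TorsinA) primary, cell count counterscreen.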

UISO = experiment: qHTS assay to identify novel small-molecules to repurpose for Merkel cell carcinoma treatment (AID 1296009); details: MCC and control cell lines, CellTiter-Glo viability, 72 h; activity change, negative = cytotoxicity: at 46 µM (top of the series); further: nearly all actives have a fitted effect of over 60% in size
Summary of the method: as §2

[11] = P-glycoprotein substrates identified in KB-3-1 adenocarcinoma cell line, qHTS therapeutic library screen (AID 1346986); details: KB-3-1 parental cells viability, CellTiter-Glo, 72 h; series mostly up to 44.5 µM; further: nearly all actives have a fitted effect of over 60% in size;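 further: potency is for cytotoxicity meaning loss of cell viability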
Summary of the method: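 KB-3-1 parental and colchicine-selected P-gp-overexpressing KB-8-5-11 cells (colchicine omitted during assay), 500 cells/well, dosed in dose-response for 72 h at 37 °C; CellTiter-Glo luminescence. Cytotoxic: curve class -1.1 to -2.4, max response >50%, AC50 < 10 uM.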

[12] = tested on: Nanoluciferase (engineered Oplophorus gracilirostris luciferase); experiment: Primary Nanoluciferase (NLuc) qHTS assay for identification of artifact compounds. (AID 1845222); details: NLuc-conditioned medium, Nano-Glo luminescence, 5 min; series mostly up to 54.1 µM;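 further: NLuc secreted into diluted conditioned medium of S16 cells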
Summary of the method: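 qHTS format, against NLuc in S16 cell-conditioned medium. Nano-Glo substrate 1:100 was added after 15 min at room temperature. Luminescence was taken after a further 5 min.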

[13] = qHTS of pediatric cancer cell lines to identify multiple opportunities for drug repurposing: Primary screen for BT-37 cells (AID 1347094); details: BT-37 viability, CellTiter-Glo luminescence, 48 h; series mostly up to 57.3 µM
Summary of the method: as §1

[14] = qHTS of pediatric cancer cell lines to identify multiple opportunities for drug repurposing: Primary screen for SK-N-SH cells (AID 1347098); details: SK-N-SH viability, CellTiter-Glo luminescence, 48 h; activity change, negative = cytotoxic: at 57 µM (top of the series); further: nearly all actives have a fitted effect of over 65% in size
Summary of the method: (§3)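 Cells (500-1,000/well) rested 5 h, then received compounds for 48 h; metabolically active cells were measured by CellTiter-Glo luminescence. Final concentrations spanned up to 46 µM (MIPE, 11-point) or 0.59 nM-46 µM (NPC, 8-point) in primary screens, 11-point in follow-ups.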

W2 = experiment: qHTS profiling for inhibitors of Plasmodium falciparum proliferation (AID 504749); further: nearly all actives have a fitted effect of over 60% in size; details: P. falciparum in erythrocytes, SYBR Green DNA, 72 h; series mostly up to 28.7 µM
Summary of the method: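 P. falciparum-infected erythrocytes (0.3% parasitemia, 2.5% hematocrit) incubated with compound 72 h at 37 C, 5% CO2. Parasite DNA detected by SYBR Green after lysis, overnight at room temperature; normalised to 0.29 uM artemisinin and DMSO.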

[15] = qHTS of pediatric cancer cell lines to identify multiple opportunities for drug repurposing: Primary screen for OHS-50 cells (AID 1347103); details: OHS-50 osteosarcoma viability, CellTiter-Glo luminescence, 48 h; series mostly up to 57.3 µM; further: nearly all actives have a fitted effect of over 40% in size
Summary of the method: as §3
Potency means the concentration at half of the fitted maximal effect; tags describe the fitted curve by direction and shape.

C[C@](Cc1c[nH]c2ccccc12)(NC(=O)OC1C2CC3CC(C2)CC1C3)C(=O)NC[C@H](NC(=O)CCC(=O)O)c1ccccc1 (some centres not stated)
Potency [1]: inconclusive [cytotoxic, partial curve]

O=C1NC(=O)[C@@H](c2cn3c4c(cccc24)CCC3)[C@H]1c1c[nH]c2ccccc12
Potency [2]: active: 6.62 µM | Potency [3]: active: 0.148 µM | Potency [1]: inconclusive [cytotoxic, partial curve, poor fit] | Potency [4]: active: 0.235 µM | Potency (MKL-2): active: 23.5 µM | Potency (WaGa): inconclusive [inhibitor, full curve]

Cc1cc(OCCOCC[N+](C)(C)Cc2ccccc2)ccc1C(C)(C)CC(C)(C)C
Potency [5]: active: 7.08 µM | Potency [2]: inconclusive [inhibitor, single point] | Potency [6]: active: 10.6 µM | Potency [1]: inactive | Potency [7]: inconclusive [cytotoxic, single point] | Potency [8]: inconclusive [cytotoxic, partial curve] | Potency [9]: inconclusive [inhibitor, partial curve, poor fit] | Potency [10]: inconclusive [inhibitor, single point] | Potency (MKL-2): inconclusive [inhibitor, full curve, poor fit] | Potency (UISO): active: 4.22 µM | Potency (WaGa): inconclusive [inhibitor, full curve, poor fit]

Cn1ncnc1[C@@H]1c2n[nH]c(=O)c3cc(F)cc(c23)N[C@H]1c1ccc(F)cc1
Potency [11]: inactive

OC[C@H]1O[C@@H](Oc2ccc(O)c3cccc(O)c23)[C@H](O)[C@@H](O)[C@@H]1O
Potency [12]: inconclusive [inhibitor, partial curve, poor fit]

CN[C@@H]1[C@H](O[C@H]2[C@H](O[C@@H]3[C@@H](O)[C@H](O)[C@@H](N=C(N)N)[C@H](O)[C@H]3N=C(N)N)O[C@@H](C)[C@]2(O)C=O)O[C@@H](CO)[C@H](O)[C@H]1O
Potency [11]: inactive

C=CC(=O)Nc1cccc(Nc2nc(Nc3ccc(NC4CN(CCF)C4)cc3OC)ncc2C(F)(F)F)c1
Potency [11]: active: 10.3 µM

Cc1cc(C(C#N)c2ccc(Cl)cc2)c(Cl)cc1NC(=O)c1cc(I)cc(I)c1O (configuration not stated)
Potency [2]: inactive | Potency [6]: inconclusive [cytotoxic, single point] | Potency [13]: inconclusive [cytotoxic, single point] | Potency [14]: inconclusive [cytotoxic, single point] | Potency [1]: inconclusive [cytotoxic, partial curve] | Potency [4]: inconclusive [cytotoxic, single point] | Potency [8]: inconclusive [cytotoxic, single point] | Potency [9]: active: 3.98 µM | Potency [10]: inconclusive [inhibitor, partial curve, poor fit] | Potency (W2): inconclusive [inhibitor, single point] | Potency (UISO): inconclusive [inhibitor, single point] | Potency (WaGa): active: 10.6 µM

CCCCCCCCCCCC[N+](C)(C)Cc1ccccc1
Potency [2]: inconclusive [inhibitor, single point] | Potency [6]: active: 8.41 µM | Potency [13]: active: 15.5 µM | Potency [8]: active: 18.8 µM | Potency [10]: inconclusive [inhibitor, single point] | Potency (MKL-2): active: 0.0944 µM | Potency (UISO): active: 1.19 µM | Potency (WaGa): active: 1.88 µM

CCCC(=O)c1cc(O)c(O)cc1O
Potency [13]: inconclusive [cytotoxic, partial curve, poor fit] | Potency [3]: inconclusive [cytotoxic, single point] | Potency [14]: inconclusive [cytotoxic, partial curve, poor fit] | Potency [15]: inconclusive [cytotoxic, partial curve, poor fit] | Potency [9]: active: 5.62 µM | Potency (MKL-2): active: 27.3 µM | Potency (UISO): inconclusive [inhibitor, partial curve, poor fit] | Potency (WaGa): inconclusive [inhibitor, single point]

CC(C)c1cc(C(C)C)c(CC(=O)NS(=O)(=O)Oc2c(C(C)C)cccc2C(C)C)c(C(C)C)c1
Potency [6]: inconclusive [cytotoxic, single point] | Potency [15]: active: 27.3 µM | Potency [4]: inconclusive [cytotoxic, partial curve] | Potency [7]: inconclusive [cytotoxic, single point] | Potency [9]: inconclusive [inhibitor, full curve] | Potency (UISO): inconclusive [inhibitor, single point]

CCCN1CCN(c2ccc(C(=O)NC3(C(=O)NCC#N)CCCCC3)cc2)CC1
Potency [12]: inactive
